Reference: PubChem BioAssay AID1508624 (National Center for Advancing Translational Sciences (NCATS), 2021)
Hit rate of the full screen: of about 48,000 compounds, about 120 (0.25%) were called active. Another 4% or so got no clear call; they are omitted. Calls follow the shape of the dose curve; as a rule, active = well fitted activation curve with a large enough effect; inconclusive = small, poorly fitted or top-dose-only effect, or another doubt; inactive = no such curve, though single readings can be large or run the other way. The list shows a part of the results.

Assay: Primary qHTS for Identification of Small Molecule Activators of Huntingtin-Antisense Promoter Activity; also: nearly all actives have a fitted effect of over 55% in size
Conditions: HEK293 HTT-AS promoter firefly luciferase reporter, 24 h; series mostly up to 57.5 µM; activity change, positive = activation: at the top concentration
Procedure, shortened: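 HEK293 luciferase promoter-reporter cells (2,500/well) plated 24 h, then compounds added at up to 57.5 uM final for 24 h at 37 °C. Firefly luminescence by Dual-Glo, normalized to vehicle (0%) and zero RLU (-100%).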

Activity change, positive = activation, inactive:
O=C(CSc1nc2ccsc2c(=O)n1-c1ccc(Br)cc1)NCc1ccc(Cl)cc1 -23.9%
COc1cccc(-c2nc(CS(=O)(=O)CC(=O)Nc3ccc(C)c(Cl)c3)c(C)o2)c1 -31.2%
COc1ccc(CCNC(=O)Cc2ccc(NC(=O)N3CCSc4ncccc43)cc2)cc1OC -11.7%
Cc1cccc(NC(=O)c2cc3c([nH]c2=O)CC(c2ccccc2)CC3=O)c1 (stereo not given) -4.45%
O=C(Cn1c(=O)n(Cc2ccc(F)cc2)c(=O)c2sc3ccccc3c21)Nc1ccc(F)cc1F -8.9%
COc1cc(C(=O)NCc2nc(-c3ccc(Cl)cc3)no2)cc(OC)c1OC -8.93%
COC(=O)CCNC(=O)N1CCN(c2nnc(C)c3c(C)n(-c4ccccc4)nc23)CC1 -1.83%
COc1cccc(CNC(=O)Cn2cccc2C(=O)c2ccccc2)c1 21.3%
COc1ccc(C(=O)N2CCN(c3nc4c(OC)cccc4s3)CC2)cc1OC -26.4%
CCOC(=O)c1cc(-c2ccccc2)n(-c2cccc(C(=O)NC(C)(C)C)c2)c1C -30%
CCOc1ccc(S(=O)(=O)NCc2cccn2Cc2cccc(C)c2)cc1 -17.2%
CC(C)COc1ccc(C(=O)N(Cc2cccc(F)c2)C2CCS(=O)(=O)C2)cc1 (stereo not given) -15.1%
Cc1ccccc1C(=O)Nc1ccc(C(=O)N2CCCC(O)c3cc(Cl)ccc32)c(C)c1 (stereo not given) -17.8%
CCOC(=O)c1cnc2ccc(OCC)cc2c1NCCc1ccc(OC)c(OC)c1 -13.4%
CCCn1c(=N)c(C(=O)NC2CCCCC2)cc2c(=O)n3cc(C)ccc3nc21 -6.6%
CCN1CCc2c(sc(-n3cccc3)c2C(CCC(C)C)NC(=O)NCCC(=O)OC)C1 (stereo not given) -14.2%
CC[N+](CC)(CC)CCOc1ccc(/C=C/c2ccccc2)cc1 -33.9%
CCc1cccc(C)c1NC(=O)C(NS(=O)(=O)c1ccc2c(c1)CCC(=O)N2)c1ccccc1 (stereo not given) -17.2%
CCCn1c2ccccc2c2cnn(CC(=O)NCCCOC(C)C)c(=O)c21 -8.7%
Cc1ccc(NS(=O)(=O)c2c(C)nc3sc(C)c(C)n3c2=O)cc1F -37.3%
Cc1ccc2c(c1)-c1c(cnc3cc(-c4ccc(Cl)cc4)nn13)CO2 4.25%
Cc1ccc2onc(CNC(=O)N3CCN(c4cc(Cl)ccc4C)CC3)c2c1 -34.1%
CC(CNC(=O)c1cc2cc(S(=O)(=O)N3CCCCC3)ccc2n1C)c1ccccc1 (stereo not given) -39.5%
Cc1ccc(CCNC(=O)c2sc3nc4n(c(=O)c3c2C)CCCC4)cc1 -16.6%
COc1ccccc1CNC(=O)c1ccc2c(c1)nc(C)n2-c1cccc(C)c1 -14.5%
COc1ccc(C(C)=O)cc1CSc1nc(NCc2ccccc2)c2ccccc2n1 -37%
O=C(O)c1ccc(OCCCOc2ccc(C(=O)O)cc2)cc1 2.31%
COc1ccc(NC(=O)C(C)N2Cc3ccccc3C2=O)cc1OC (stereo not given) -9.88%
Cc1ccc2c(c1)c(=O)c1ccccc1n2CCCC(=O)Nc1ccc(C)c(C)c1 -46.5%
CC(C)OC(=O)c1ccc(NC(=O)CSc2nc(-c3cccs3)cc(C(F)(F)F)n2)cc1 -29.9%
Cc1ccc(COC(=O)c2[nH]c3c(c2C)C(=O)CC(c2ccc(Cl)cc2)C3)cc1 (stereo not given) -3.35%
Cc1cccc(CN2C(=O)c3ccccc3S(=O)(=O)c3ccc(C(=O)OCC4CCCO4)cc32)c1 (stereo not given) -6.81%
CCc1ccc(CNC(=O)C2COc3ccccc3C2)cc1 (stereo not given) 9.83%
CCOC(=O)c1cc(S(=O)(=O)N2CCN(c3ccccc3OC)CC2)[nH]n1 -4.75%
Cc1ccc(N2CC(NC(=O)C3CCCCC3)CC2=O)cc1 (stereo not given) -15.2%
COc1ccc(NC(=O)CSCc2cc(=O)c3cc(Cl)ccc3[nH]2)cc1 -18.9%
CCc1ccc(C(=O)c2cn(CC(=O)Nc3ccc(F)cc3)c3ccc(F)cc3c2=O)cc1 -29.8%
CCn1c(CNC(=O)c2ccc(OC)cc2)nnc1SCC(=O)Nc1ccc(F)cc1 -5.2%
CCOc1ccc(C2CC(=O)Nc3c2c(=O)[nH]c2ncnn32)cc1 (stereo not given) -13.5%
Cc1cccc(C(=O)Nc2cc(-c3ccccc3F)nn2-c2ccccc2)c1 -12.4%
Cc1cccc(C)c1NC(=O)CC12CCCN1CCC2 -4.04%
COc1cc(NS(=O)(=O)c2cc3[nH]c(=O)[nH]c3cc2C)cc(OC)c1OC -0.586%
NC(=O)c1ccc(-c2nc(-c3ccc4c(c3)OCCO4)c(-c3ccccn3)[nH]2)cc1 -14.9%
O=C(Nc1cccc(NC(=O)c2ccc(Br)cc2)c1)c1ccccc1 -3.08%
CCCn1c(NCc2ccccc2F)nc2ccccc21 8.26%
COc1ccc2c(c1)CC(NC(=O)Nc1ccc(Br)c(C)c1)CO2 (stereo not given) -7.52%
CCC(=O)N1c2ccc(S(=O)(=O)CCC(=O)N3CCN(c4ccc(F)cc4)CC3)cc2CC1C (stereo not given) -25.2%
COc1ccc(-c2nnc(SCC(=O)Oc3cc(C)ccc3C)o2)cc1 -24.7%
CCOC(=O)c1cc2c(=O)n3ccccc3nc2n(CC2CCCO2)c1=NC(=O)c1ccc(F)cc1 (stereo not given) 0%
O=C(NCc1cccc(F)c1)c1ccc2nc(CCc3ccccc3)oc2c1 23.7%
CCCCCNC(=O)c1ccc2c(=O)n(CCc3ccccc3)c(=O)[nH]c2c1 3.54%
CCOC(=O)N1CCc2c(sc(NCc3cccc(F)c3)c2C(=O)Nc2ccc(OCC)cc2)C1 8.15%
CCN(C(=O)c1cccn(Cc2cccc(Cl)c2)c1=O)c1ccccc1 -12.5%
Cc1ccc(-c2nc(Cn3c(SCc4ccc(F)cc4)nc4cccnc43)c(C)o2)cc1 -35.8%
COc1cc(C(=O)NC2CCN(C)CC2)ccc1Nc1ncc2c(n1)N(C1CCCC1)CCC(=O)N2C(C)C -24.4%
COc1ccc(C(=O)Nc2nonc2-c2ccc(OC)c(OC)c2)cc1Cl -37.1%
CCOc1ccc(NC(=O)c2ccc3nc(C(C)C)oc3c2)cc1 -21.4%
COc1ccc(Cn2c(C(=O)O)c(CNCc3ccc(C)o3)c3ccc(OC)cc32)cc1 -22.2%
CCc1cccc(NC(=O)Cn2nc(C)c3sc4ccccc4c3c2=O)c1 13.7%
Cc1ccc(C)c(CN2C(=O)CSc3ccc(C(=O)NCc4ccccc4)cc32)c1 -28.9%
COc1ccccc1OC(C)C(=O)N1CCC(c2nc3ccccc3s2)CC1 (stereo not given) -16.9%
COc1ccc(Cn2c(=O)c3ccccc3n3c(-c4ccc(C)cc4)nnc23)cc1 17.7%
Cc1ccc(OCc2cc(=O)n3cc(C)sc3n2)c(NC(=O)c2ccco2)c1 -12.2%
CC(C)c1cc2c(cc1S(=O)(=O)O)[C@@]1(C)CCC[C@@](C)(C(=O)O)[C@@H]1CC2 -1.01%
Cc1ccc(C)c(NC(=O)Cn2cc(S(=O)(=O)NC(C)C)c(S(=O)(=O)NC(C)C)c2)c1 -4.74%
COc1cc(C(=O)Nc2c(C(=O)Nc3ccccc3F)oc3ccccc23)cc(OC)c1OC -16.1%
CCOC(=O)c1c(-c2ccccc2)oc2cc(Br)c(OCc3ccccc3)cc12 -12.8%
Cc1ccc(OCCCCn2nnc3sc4c(c3c2=O)CCC(C)C4)cc1 (stereo not given) -12.3%
CCn1c(=N)c(C(=O)NC2CCCC2)cc2c(=O)n3cc(C)ccc3nc21 -13.6%
Cc1ccc(NC(=O)C2CCCN(S(=O)(=O)c3cccc4nsnc34)C2)c(C)c1 (stereo not given) -13.7%
CCN(CC)S(=O)(=O)c1ccc2c(c1)N(CC(=O)NCCCN1CCN(c3cc(C)ccc3C)CC1)C(=O)CO2 -32.8%
CCOc1ccc(C(=O)NCCc2csc(-c3cccnc3)n2)cc1 -2.44%
Cc1ccc(Cl)cc1Nc1nn2c(=O)c3ccc(C(=O)NC4CCC(C)CC4)cc3nc2s1 (stereo not given) -12.3%
CN1CCN(C2(CNC(=O)COc3ccc(C(C)(C)C)cc3)CCCCC2)CC1 -23.1%
O=C(Cn1c(=O)n(-c2ccc(F)c(Cl)c2)c(=O)c2sc3ccccc3c21)NC1CCCCC1 0.53%
CC(C)c1ccc(CNCCSc2nnnn2-c2ccccc2)cc1 5.88%
CCNC(=O)C1CCCN(c2nn3cc(-c4ccc(C)cc4)nc3s2)C1 (stereo not given) -69.4%
CCC(C)S(=O)(=O)c1oc(-c2ccc(F)cc2)nc1S(=O)(=O)c1ccc(F)cc1 (stereo not given) -94.5%
CCc1ccc(NC(=O)Cn2c(=O)n(CCC(=O)NCCc3ccc(OC)c(OC)c3)c(=O)c3ccccc32)cc1 -14.7%
Cc1cc(C)cc(NC(=O)C2CCN(c3nc4ccccc4nc3C(F)(F)F)CC2)c1 -1.71%
CCOc1ccc(-n2nc3ccc(NC(=O)COc4ccccc4)cc3n2)cc1 -42.5%
CN(C)C(=O)C(CCN1CCC(O)(c2ccc(Cl)cc2)CC1)(c1ccccc1)c1ccccc1
CC(=O)c1ccc(S(=O)(=O)N2CCn3cccc3C2c2ccc(F)c(F)c2)cc1 (stereo not given) -39.7%
CCc1cc(C(=O)NCc2ccc(F)cc2)no1 3.28% [at 11.5 µM, percent change from vehicle, -100% = no light]
CN[C@H]1[C@@H](O)[C@@H]2O[C@@H]3O[C@H](C)CC(=O)[C@]3(O)O[C@@H]2[C@@H](NC)[C@H]1O -93.5%
COc1ccc(CNc2ncnc3c2c(-c2ccccc2)cn3-c2cccc(C)c2)cc1 -28.8%
CC(C)Oc1ccc(CNC(=O)c2ccc3c(c2)N(C)C(=O)C2CCCCN32)cc1 (stereo not given) -16.4%
Cc1ccc(N2CC(NC(=O)C3CCCC3)CC2=O)cc1C (stereo not given) -11.3%
O=C(COc1ccccc1Cl)Nc1nc(-c2ccc(F)cc2)ns1 -18.4%
COc1cccc(NC(=O)C2CCN(S(=O)(=O)c3c(C)noc3/C=C/c3cccs3)CC2)c1 -37.2%
CCN1CCN(c2cc(C)c3cc(NC(=O)/C=C/c4ccc(OCCC(C)C)cc4)ccc3n2)CC1 -12%
Cc1ccc(NC(=O)CSc2nc(C3CCCC3)nc3c2c(=O)n(C)c(=O)n3C)c(C)c1 -5.1%
CCc1nnc(SCc2nc(-c3cccc(C)c3)oc2C)c2cc3sc(C)cc3n12 -0.0786%
O=C(CSc1nccn1-c1ccc(F)cc1)Nc1cccc2ccccc12 -9.33%
COc1ccc(C(=O)Nc2cc(NC(=O)c3ccco3)ccc2OC)cc1Cl -2.7%
